Data: the supplement of paper PMC8728848
Some of the results follow.

What was measured:
Experiment in all cases: glycan array binding signal (z-score within array); higher = stronger binding
Details in all cases: glycan notation: IUPAC condensed, linker removed
[1] = biological target: Neu5Ac(a2-3)Gal(b1-3)GlcNAc
Outline: (§1)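 From the Consortium for Functional Glycomics database, 3228 arrays were curated, keeping only those whose protein sequence was available. Binding is given as a within-array Z-score averaged across arrays sharing a protein sequence and across linkers. Negative Z-scores can be read as non-binding.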

[2] = biological target: Neu5Ac(a2-3)Gal(b1-3)GlcNAc(b1-2)Man
Outline: as §1

[3] = biological target: Neu5Ac(a2-3)Gal(b1-3)GlcNAc(b1-2)Man(a1-3)[GlcNAc(b1-4)][Neu5Ac(a2-3)Gal(b1-3)GlcNAc(b1-2)Man(a1-6)]Man(b1-4)GlcNAc(b1-4)GlcNAc
Outline: as §1

[4] = biological target: Neu5Ac(a2-3)Gal(b1-3)GlcNAc(b1-2)Man(a1-3)[Neu5Ac(a2-3)Gal(b1-3)GlcNAc(b1-2)Man(a1-6)]Man(b1-4)GlcNAc(b1-4)GlcNAc
Outline: as §1

[5] = biological target: Neu5Ac(a2-3)Gal(b1-3)GlcNAc(b1-2)[Neu5Ac(a2-3)Gal(b1-3)GlcNAc(b1-4)]Man(a1-6)[Neu5Ac(a2-3)Gal(b1-3)GlcNAc(b1-2)Man(a1-3)]Man(b1-4)GlcNAc(b1-4)GlcNAc
Outline: as §1

[6] = biological target: Neu5Ac(a2-3)Gal(b1-3)GlcNAc(b1-3)Gal(b1-3)GlcNAc
Outline: as §1

[7] = biological target: Neu5Ac(a2-3)Gal(b1-3)GlcNAc(b1-3)Gal(b1-4)GlcNAc
Outline: as §1

[8] = biological target: Neu5Ac(a2-3)Gal(b1-3)GlcNAc(b1-3)GalNAc
Outline: as §1

[9] = biological target: Neu5Ac(a2-3)Gal(b1-3)GlcNAc(b1-6)GalNAc
Outline: as §1

[10] = biological target: Neu5Ac(a2-3)Gal(b1-3)GlcNAc6S
Outline: as §1

[11] = biological target: Neu5Ac(a2-3)Gal(b1-3)[Fuc(a1-4)]GlcNAc
Outline: as §1

[12] = biological target: Neu5Ac(a2-3)Gal(b1-3)[Fuc(a1-4)]GlcNAc(b1-3)Gal(b1-3)[Fuc(a1-4)]GlcNAc
Outline: as §1

[13] = biological target: Neu5Ac(a2-3)Gal(b1-3)[Fuc(a1-4)]GlcNAc(b1-3)Gal(b1-4)[Fuc(a1-3)]GlcNAc
Outline: as §1

[14] = biological target: Neu5Ac(a2-3)Gal(b1-3)[GlcNAc(b1-6)]GalNAc
Outline: as §1

[15] = biological target: Neu5Ac(a2-3)Gal(b1-3)[Neu5Ac(a2-6)]GalNAc
Outline: as §1

[16] = biological target: Neu5Ac(a2-3)Gal(b1-3)[Neu5Ac(a2-6)]GlcNAc(b1-3)[Fuc(a1-3)[Gal(b1-4)]GlcNAc(b1-6)]Gal(b1-4)Glc
Outline: as §1

[17] = biological target: Neu5Ac(a2-3)Gal(b1-3)]Neu5Ac(a2-3)Gal(b1-4)]GlcNAc
Outline: as §1

Neu5Ac(a2-3)Gal(b1-4)Glc = biological target: Neu5Ac(a2-3)Gal(b1-4)Glc
Outline: as §1

[18] = biological target: Neu5Ac(a2-3)Gal(b1-4)GlcNAc
Outline: as §1

[19] = biological target: Neu5Ac(a2-3)Gal(b1-4)GlcNAc(b1-2)Man
Outline: as §1

[20] = biological target: Neu5Ac(a2-3)Gal(b1-4)GlcNAc(b1-2)Man(a1-3)[GlcNAc(b1-4)][Neu5Ac(a2-3)Gal(b1-4)GlcNAc(b1-2)Man(a1-6)]Man(b1-4)GlcNAc(b1-4)GlcNAc
Outline: as §1

[21] = biological target: Neu5Ac(a2-3)Gal(b1-4)GlcNAc(b1-2)Man(a1-3)[Neu5Ac(a2-3)Gal(b1-4)GlcNAc(b1-2)Man(a1-6)]Man(b1-4)GlcNAc(b1-4)GlcNAc
Outline: as §1

[22] = biological target: Neu5Ac(a2-3)Gal(b1-4)GlcNAc(b1-2)Man(a1-3)[Neu5Ac(a2-3)Gal(b1-4)GlcNAc(b1-2)Man(a1-6)]Man(b1-4)GlcNAc(b1-4)[Fuc(a1-6)]GlcNAc
Outline: as §1

[23] = biological target: Neu5Ac(a2-3)Gal(b1-4)GlcNAc(b1-2)Man(a1-3)[Neu5Ac(a2-6)Gal(b1-4)GlcNAc(b1-2)Man(a1-6)]Man(b1-4)GlcNAc(b1-4)GlcNAc
Outline: as §1

[24] = biological target: Neu5Ac(a2-3)Gal(b1-4)GlcNAc(b1-2)[Neu5Ac(a2-3)Gal(b1-4)GlcNAc(b1-4)]Man(a1-3)[GlcNAc(b1-4)][Neu5Ac(a2-3)Gal(b1-4)GlcNAc(b1-2)[Neu5Ac(a2-3)Gal(b1-4)GlcNAc(b1-6)]Man(a1-6)]Man(b1-4)GlcNAc(b1-4)GlcNAc
Outline: as §1

[25] = biological target: Neu5Ac(a2-3)Gal(b1-4)GlcNAc(b1-2)[Neu5Ac(a2-3)Gal(b1-4)GlcNAc(b1-4)]Man(a1-3)[GlcNAc(b1-4)][Neu5Ac(a2-3)Gal(b1-4)GlcNAc(b1-4)Man(a1-6)]Man(b1-4)GlcNAc(b1-4)GlcNAc
Outline: as §1

[26] = biological target: Neu5Ac(a2-3)Gal(b1-4)GlcNAc(b1-2)[Neu5Ac(a2-3)Gal(b1-4)GlcNAc(b1-6)]Man(a1-6)[Neu5Ac(a2-3)Gal(b1-4)GlcNAc(b1-2)Man(a1-3)][GlcNAc(b1-4)]Man(b1-4)GlcNAc(b1-4)GlcNAc
Outline: as §1

[27] = biological target: Neu5Ac(a2-3)Gal(b1-4)GlcNAc(b1-3)Gal
Outline: as §1

[28] = biological target: Neu5Ac(a2-3)Gal(b1-4)GlcNAc(b1-3)Gal(b1-3)GlcNAc
Outline: as §1

[29] = biological target: Neu5Ac(a2-3)Gal(b1-4)GlcNAc(b1-3)Gal(b1-4)GlcNAc
Outline: as §1

[30] = biological target: Neu5Ac(a2-3)Gal(b1-4)GlcNAc(b1-3)Gal(b1-4)GlcNAc(b1-2)Man(a1-3)[Neu5Ac(a2-3)Gal(b1-4)GlcNAc(b1-3)Gal(b1-4)GlcNAc(b1-2)Man(a1-6)]Man(b1-4)GlcNAc(b1-4)GlcNAc
Outline: as §1

[31] = biological target: Neu5Ac(a2-3)Gal(b1-4)GlcNAc(b1-3)Gal(b1-4)GlcNAc(b1-3)Gal(b1-4)GlcNAc
Outline: as §1

[32] = biological target: Neu5Ac(a2-3)Gal(b1-4)GlcNAc(b1-3)Gal(b1-4)GlcNAc(b1-3)Gal(b1-4)GlcNAc(b1-2)Man(a1-3)[Neu5Ac(a2-3)Gal(b1-4)GlcNAc(b1-3)Gal(b1-4)GlcNAc(b1-3)Gal(b1-4)GlcNAc(b1-2)Man(a1-6)]GalNAc
Outline: as §1

[33] = biological target: Neu5Ac(a2-3)Gal(b1-4)GlcNAc(b1-3)Gal(b1-4)GlcNAc(b1-3)GalNAc
Outline: as §1

[34] = biological target: Neu5Ac(a2-3)Gal(b1-4)GlcNAc(b1-3)Gal(b1-4)GlcNAc(b1-3)[Neu5Ac(a2-3)Gal(b1-4)GlcNAc(b1-3)Gal(b1-4)GlcNAc(b1-6)]GalNAc
Outline: as §1

[35] = biological target: Neu5Ac(a2-3)Gal(b1-4)GlcNAc(b1-3)Gal(b1-4)GlcNAc(b1-6)[Gal(b1-3)]GalNAc
Outline: as §1

[36] = biological target: Neu5Ac(a2-3)Gal(b1-4)GlcNAc(b1-3)Gal(b1-4)[Fuc(a1-3)]GlcNAc
Outline: as §1

[37] = biological target: Neu5Ac(a2-3)Gal(b1-4)GlcNAc(b1-3)GalNAc
Outline: as §1

B1: PkBDPgamma (Plasmodium knowlesi) (protein)
chain: SAINQIFLQNNVMDKCNDKRKRGERDWDCPTEKDVCIPDRRYQLCMMEITNLVDTDTHFHSDIIFRKSYSRRRLIYDVGGRGDLLLKKYNNVYSEDLCKDIKWSLQDFGDIIMGTDMEGIGYSLVVQNNLRSIFGTGTSAELDRKKWWNDHKKDIWKAMILSVKEKNRYSAWNCKEDVQIKVEPQIYRWIREWGRDYMSEFREQRRKLNEKCEDKLYYSTMLICTLPPCNNACKSYDEWITGKKKQWDVLSTKFSSVKKAQKIETENIARAYDILKQELNGFNEVTFENEINKRDKLYNYFCVCIVQEARKNTQENVKNVGSGVESKAPSSNPINEAVKSSSGEGKVQEDSAHRSVNEGEGKSSTNEADPGSQPGAAASGGGSGGGTGGGVDLAPQMLRELQETNAALQDVRELLRQQVKEITFLKNTVMECDACGGPLDRNLPPLAPLGPTGGWSHPQFEK
[1]
  glycan array binding signal (z-score): 0.141
[2]
  glycan array binding signal (z-score): -0.43
[3]
  glycan array binding signal (z-score): 0.175
[4]
  glycan array binding signal (z-score): 0.171
[5]
  glycan array binding signal (z-score): -0.244
[6]
  glycan array binding signal (z-score): -0.352
[7]
  glycan array binding signal (z-score): -0.417
[8]
  glycan array binding signal (z-score): -0.301
[9]
  glycan array binding signal (z-score): 0.469
[10]
  glycan array binding signal (z-score): -0.075
[11]
  glycan array binding signal (z-score): -0.337
[12]
  glycan array binding signal (z-score): -0.069
[13]
  glycan array binding signal (z-score): -0.366
[14]
  glycan array binding signal (z-score): -0.266
[15]
  glycan array binding signal (z-score): 0.139
[16]
  glycan array binding signal (z-score): -0.141
[17]
  glycan array binding signal (z-score): -0.183
Neu5Ac(a2-3)Gal(b1-4)Glc
  glycan array binding signal (z-score): 0.115
[18]
  glycan array binding signal (z-score): -0.262
[19]
  glycan array binding signal (z-score): 0.266
[20]
  glycan array binding signal (z-score): -0.62
[21]
  glycan array binding signal (z-score): 0.46
[22]
  glycan array binding signal (z-score): -0.023
[23]
  glycan array binding signal (z-score): 0.268
[24]
  glycan array binding signal (z-score): 0.262
[25]
  glycan array binding signal (z-score): -0.279
[26]
  glycan array binding signal (z-score): -0.229
[27]
  glycan array binding signal (z-score): -0.365
[28]
  glycan array binding signal (z-score): -0.241
[29]
  glycan array binding signal (z-score): 0.522
[30]
  glycan array binding signal (z-score): -0.252
[31]
  glycan array binding signal (z-score): -0.185
[32]
  glycan array binding signal (z-score): 0.477
[33]
  glycan array binding signal (z-score): -0.214
[34]
  glycan array binding signal (z-score): -0.058
[35]
  glycan array binding signal (z-score): -0.613
[36]
  glycan array binding signal (z-score): 0.258
[37]
  glycan array binding signal (z-score): -0.073
